Hit rate of the full screen: of about 48,000 compounds, about 120 (0.25%) were called active. Roughly 4% stayed inconclusive and do not appear here. Calls come from the whole dose curve; as a rule, active = well fitted activation curve with a large enough effect; inconclusive = small, poorly fitted or top-dose-only effect, or another doubt; inactive = no such curve, though single readings can be large or run the other way. This is a selection; strong and weak results do not stand in their true shares. The source gives no active or inactive call for entries shown without one.
experiment: Primary qHTS for Identification of Small Molecule Activators of Huntingtin-Antisense Promoter Activity; conditions: HEK293 HTT-AS promoter firefly luciferase reporter, 24 h; at 57.5 µM (top of the series) unless noted; note: nearly all actives have a fitted effect of over 55% in size
Text: Assay Provider: Russell L. Margolis M.D.
Department Neurology, Johns Hopkins University School of Medicine, Baltimore, MD
Huntington's Disease (HD) is a neurodegenerative disorder caused by a CAG repeat expansion in exon 1 of huntingtin (HTT). While there are currently no disease-modifying treatments for HD, recent efforts have focused on development of nucleotide-based therapeutics to lower HTT expression. As an alternative to siRNA or oligonucleotide methods, we hypothesized that suppression of HTT expression might be accomplished by small molecules that either (1) directly decrease HTT expression by suppressing HTT promoter activity or (2) indirectly decrease HTT expression by increasing the promoter activity of HTT-AS, the gene antisense to HTT that appears to inhibit expression of HTT.
We developed and employed a high throughput screen for modifiers of HTT and HTT-AS promoter activity using luminescent reporter HEK293 cells; of the 52,041 compounds tested, we identified 898 replicable hits. We used a rigorous stepwise approach to assess compound toxicity and the capacity of the compounds to specifically lower huntingtin protein in 5 different cell lines, including HEK293 cells, HD lymphoblastoid cells, mouse primary neurons, HD iPSCs differentiated into cortical-like neurons, and HD hESCs. We found no compounds which were able to lower huntingtin without lowering cell viability in all assays, though the potential efficacy of a few compounds at non-toxic doses could not be excluded.
SEQUENCE No. (1, 2, 3, etc.); […] (e.g., Cells, Incubation, Reagent, etc.); VALUE and DESCRIPTION.
1; Reagent; 4 uL; 2,500 Hek293 luciferase reporter cells per wells
3; Compound; 23 nL; Control inhibitor / compound library
5; Reagent; 2.5 uL; Firefly Luc reagent; Dual-Glo Luciferase Reporter Assay System (Promega)
6; Time; 10 min; room temperature incubation
7; Detection; Luminescence; FLuc
NOTES (numbers refer to sequence above)
1; High-throughput screening, measuring luminescence from a Hek293 luciferase reporter, was performed in 1,536 well white-walled tissue-culture treated plates. 2,500 cells were plated in 4 µL of Opti-MEM per well using a Multidrop Combi Reagent Dispenser (ThermoFisher).
2; Assay plates were cultured for 24 hours.
3; Control inhibitor (PTC124; final concentration of 50 uM) and compound library (at final concentrations of 460 nM - 57.5 uM) were added to the assay plate using the Kalypsis Pintool Robotic System equipped with 1536 pinheads.
4; Cells were then incubated for 24 hours at 37 degrees C prior to luminescence measurements.
5; In all cases, luminescence was measured using the Dual-Glo Luciferase Reporter Assay System (Promega) following the manufacturer's instructions.
6; Room temperature incubation.
7; Luminescence signal was obtained using the PerkinElmer ViewLux plate reader. Results were normalized to vehicle control (0% activity) and zero RLU (-100% activity).

| SMILES | activity change, positive = activation |
| --- | --- |
| CCc1cc(OC)c(C[C@H](C)N)cc1OC | inactive: -23.1% [at 116 µM] |
| C[C@]12CC[C@@H]3c4ccc(OC(=O)N(CCCl)CCCl)cc4CC[C@H]3[C@@H]1CC[C@@H]2O | inactive: -11.7% |
| COP(=S)(OC)SCN1C(=O)c2ccccc2C1=O | inactive: -25.7% |
| C=CC[C@]1(O)CC[C@H]2[C@@H]3CCC4=CC(=O)CCC4=C3C=C[C@@]21C | inactive: -19.9% |
| CCOC(=O)c1ccc(NC(=O)c2cccn(Cc3ccc(C)cc3)c2=O)cc1 | inactive: -42.8% |
| O=C(Nc1ccc2c(c1)OCCO2)c1cccn(Cc2cccc(F)c2)c1=O | inactive: 7% [at 57.5 µM, percent change from vehicle, -100% = no light] |
| Cc1oc2cc3oc(=O)c(CCC(=O)N4CCCCC4)c(C)c3cc2c1C | 70.2% |
| CCCCCCCCCCCC[N+](C)(C)CCOc1ccccc1 | inactive: -35.5% |
| Cc1ccc([N+](=O)[O-])[c]2c1[O][Hg]2 | inactive: -95.7% |
| Cc1ccc(-n2c(=O)[nH]c3ccc(Br)cc3c2=O)cc1 | 9.51% [at 57.5 µM, percent change from vehicle, -100% = no light] |
| CSCC[C@@H](NC(=O)[C@@H](Cc1ccccc1)NC(=O)CNC(=O)CNC(=O)[C@@H](N)Cc1ccc(O)cc1)C(=O)O | inactive: 2.45% |

— PubChem BioAssay AID1508624 (National Center for Advancing Translational Sciences (NCATS), 2021)
